# In patent US6638910B2, “Compositions and methods for controlling plant pests” (priority 1997, dated 2003):
# Several values for one entry are separate records, joined by “and”; a condition that tells them apart may be missing. Equal values may be shown once. Starred links: 1 amine or outer side, 2 acyl side, 3 side chain; linkers in the order of their positions; H or OH if unused. Positions of bridges follow the written chain, without caps; N, C: chain ends. Non-standard residues stand in square brackets, D forms with d. Residues, ends and D or L forms follow the SMILES beside them. X1 = CC(C)CCCCCCCCC[C@H](CC(=O)[*:1])O[*:2]
# Tested on: green peach aphid, Myzus persicae
# Assay: 96-well plate filter paper disk test against green peach aphid, score rating
# Conditions: Table 16; 4 is no dead insects, 1 is 100% kill
# Protocol: AQ713 was tested in medium 4 using batches of AQ713 grown twice in two different 10 liter fermenters and twice in one 400 liter fermenters for 48 hours. The green peach aphid, Myzus persicae was tested in addition to corn rootworm and armyworm. Both whole broth (WB) and supernatant (S) were tested from one of the 400 liter batches. To test green peach aphid, 40 microliters of the sample of AQ713 were pipetted onto a small filter paper disk at the bottom of each of 8 wells in a 96-well plate. The plates are then dried under a fume hood for 1-2 hours. Aphids are added to each well by gently tapping the aphids off of cabbage leaves. The bottom of the well was covered with aphids. When a column of wells is filled, the plate is capped with a cap strip to keep the aphids in place. The test plates are incubated at 20-22° C. The test is rated in 48 hours, using a microscope to count the number of aphids alive and dead. The wells are then given a score on a scale from 1 to 4 as with the other insects (4 is no dead insects, 1 is 100% kill).
structure (smiles),measurement,value
CC(C)CCCCCCCCC[C@@H]1CC(=O)N[C@@H](CCC(=O)O)C(=O)N[C@@H](CC(C)C)C(=O)N[C@H](CC(C)C)C(=O)N[C@@H](C(C)C)C(=O)N[C@@H](CC(=O)O)C(=O)N[C@H](CC(C)C)C(=O)N[C@@H](CC(C)C)C(=O)O1 [Surfactin] (EL[dL]VD[dL]L; linker N-C via X1),"Activity score, Green Peach aphid",2.0 and 3.0
